# Experimental data: PubChem BioAssay AID2451 (National Center for Advancing Translational Sciences (NCATS), 2010)
# Hit rate of the full screen: of about 290,000 compounds, about 2,100 (0.72%) were called active. Inconclusive results, whose numbers are uncertain, are shown with a selection of clear calls. The call rests on the fitted dose curve; in most records, active means well fitted inhibition curve with a large enough effect; inconclusive means small, poorly fitted or top-dose-only effect, or effect the other way; inactive means flat fitted curve, though single readings scatter. A potency beside an inconclusive call is a rough fit, not a confirmed value.
# Target: Fructose-bisphosphate aldolase (Giardia intestinalis (strain ATCC 50803 / WB clone C6)) (UniProt A8B2U2)
# Assay: qHTS Assay for Inhibitors of Fructose-1,6-bisphosphate Aldolase from Giardia Lamblia; further: nearly all actives have a fitted effect of over 55% in size
# Conditions: purified Giardia FBPA; activity, negative = inhibition: at 59.6 µM (top of the series) unless noted
# Outline: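 40 nM FBPA preincubated 10 min at RT with compound (up to 57.5 uM final), then substrate plus GAPDH/TPI/NAD/arsenate coupling and diaphorase/resazurin added. Fluorescence read after 20 min at RT, 525/598 nm.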
# On the % scale 0 is the no-effect control and ±100 the full control effect; potency means the concentration at half of the fitted maximal effect; tags describe the fitted curve by direction and shape.
# UniProt A8B2U2, sequence (A8B2U2 whole entry, looked up): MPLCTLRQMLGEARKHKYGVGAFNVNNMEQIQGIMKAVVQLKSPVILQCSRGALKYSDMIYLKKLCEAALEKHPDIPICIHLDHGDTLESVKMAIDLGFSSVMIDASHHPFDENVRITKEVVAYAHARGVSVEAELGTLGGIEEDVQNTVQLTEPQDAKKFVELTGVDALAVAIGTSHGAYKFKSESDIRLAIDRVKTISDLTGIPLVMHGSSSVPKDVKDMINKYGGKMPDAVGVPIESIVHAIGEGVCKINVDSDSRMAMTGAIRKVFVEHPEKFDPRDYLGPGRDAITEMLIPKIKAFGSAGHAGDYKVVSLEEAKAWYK
Structure (SMILES),Potency,"activity, negative = inhibition"
C[C@@H](NC(=O)c1nc[nH]c1C(=O)N[C@@H](Cc1ccccc1)C(=O)OCc1ccccc1)c1ccccc1,inactive,
Cc1onc(-c2c(Cl)cccc2Cl)c1NC(=O)NNc1ccccc1,inactive,
O=C(NC1CCCCCC1)c1ccc(-n2cnnc2)cc1,inactive,
C/C(=N\Nc1ncnc2sc(C)c(C)c12)c1ccccn1,"inconclusive: 28.2 µM [inhibitor, single point]",
C[C@H](NC(=O)c1nc[nH]c1C(=O)NC(c1ccccc1)c1ccccc1)C(=O)OC(C)(C)C,"inconclusive: 15.8 µM [inhibitor, single point]",
CN(C)/C=C1\NC(=S)N(c2ccccc2)C1=O,"inconclusive: 15.8 µM [inhibitor, single point]",
COC(=O)c1sccc1NC(=S)N1CCCC(C)C1 (stereo not drawn),inactive,
O=C(O)c1ccc(OCC(O)Cn2cnc3ccccc32)cc1 (stereo not drawn),"inconclusive: 39.8 µM [inhibitor, single point]",
Cc1ccsc1/C=N\NC(=O)CC(=O)NCc1ccccc1,active: 19.9 µM,
CCOc1ccc(Nc2nc(Cc3nnc(SCC(=O)O)o3)cs2)cc1,"inconclusive: 12.6 µM [inhibitor, partial curve]",
O=C(N/N=C/c1ccc(O)c(O)c1)c1ccc(CSc2cccc3cccnc23)cc1,"inconclusive: 19.9 µM [inhibitor, partial curve]",
Cc1ccc(NNC(=O)Nc2ccc(Cl)cc2)nn1,"inconclusive: 31.5 µM [inhibitor, single point]",
CCCCC/C=C\C/C=C\C/C=C\C/C=C\CCCC(=O)NCCc1ccc(O)c(O)c1,"inconclusive: 15.8 µM [inhibitor, single point]",
COc1ccccc1NC(=S)N(Cc1cccnc1)Cc1ccco1,inactive,
COc1ccc(O)c(/C=N/NC(=O)CCC(=O)Nc2ccc(F)cc2)c1,"inconclusive: 8.91 µM [inhibitor, partial curve]",
O=[N+]([O-])c1ccc2c(c1N1CCCCC1)=NC1(CCCCC1)[N+]=2[O-],"inconclusive: 12.6 µM [inhibitor, partial curve]",
N#CC1=C(N)SC(N)=C(C#N)C1c1ccnc2ccccc12,"inconclusive: 7.06 µM [inhibitor, partial curve]",
CCOC(=O)C1CCN(Cc2ccc(-c3ccccc3)cc2)CC1,"inconclusive: 17.8 µM [inhibitor, partial curve]",
CCOC(=O)C1CCN(C2=C(NS(=O)(=O)c3ccc(Br)cc3)C(=O)c3ccccc3C2=O)CC1,"inconclusive: 14.1 µM [inhibitor, partial curve]",
CCN(C(=O)c1cnc(N2CCN(c3ncccn3)CC2)c2ccccc12)c1cccc(Cl)c1,inactive,
CCCCN1C(=O)C2ON(c3ccccc3C)C(c3ccco3)C2C1=O (stereo not drawn),"inconclusive: 15.8 µM [inhibitor, partial curve]",
O=C(CSc1nc(-c2cccs2)cc(C(F)(F)F)n1)NCc1ccccc1,inactive,
COc1cccc(NC(=O)c2ccc(C(=O)c3ccccc3)o2)c1,inactive,
COc1ccc(CNC(=O)COc2ccc(C(=O)c3ccc(F)cc3)cc2)cc1,inactive,
O=C(O)c1[nH]c(=O)[nH]c(=O)c1F,active: 19.9 µM,

Structure (SMILES),Potency,"activity, negative = inhibition"
CCCCCCCCCCC1=C(C)C(=O)C(OC)=C(OC)C1=O,"inconclusive: 2.23 µM [inhibitor, full curve]",
O=C1C2C3C=CC(C3=C3CCCCC3)C2C(=O)N1Cc1ccccc1 (stereo not drawn),inactive,
Cc1cc(SCC(=O)c2cccs2)n2nc(C)c(-c3ccc(Cl)cc3)c2n1,"inconclusive: 19.9 µM [activator, single point]",
O=C(O)[C@@H]1[C@@H]2C[C@H]3c4[nH]c5ccccc5c4CCN3C[C@@H]2CC[C@@H]1O,"inconclusive: 5.61 µM [inhibitor, partial curve]",
COc1ccccc1C(=O)N=Nc1c(O)[nH]c2ccc([N+](=O)[O-])cc12,"inconclusive: 11.2 µM [inhibitor, partial curve]",
CSc1ccc(-c2sc(Nc3ccccc3)n[n+]2-c2ccc(F)cc2)cc1,"inconclusive: 35.5 µM [activator, single point]",
O=C(O)c1ccccc1C(=O)c1ccc2c(c1)N(Cc1cccc(F)c1)C(=O)CO2,"inconclusive: 17.7 µM [inhibitor, single point]",
CCN(CC)C(=O)C1CCN(CC2CC=CCC2)CC1 (stereo not drawn),"inconclusive: 35.5 µM [inhibitor, partial curve]",
CCC(C)(C)NC(=O)CN(C(=O)CCC(=O)Nc1nccs1)c1ccc2c(c1)OCCO2,inactive,
CN(Cc1ccccc1)C(=O)c1[nH]cnc1C(=O)N[C@@H](CCCCNC(=O)OC(C)(C)C)C(=O)OC(C)(C)C,"inconclusive: 17.7 µM [inhibitor, single point]",
O=C(O)CC/C(=N/Nc1ncc(C(F)(F)F)cc1Cl)C(=O)O,active: 11.2 µM,
O=C(CCSc1ccccc1)Nc1nnc(-c2cccs2)o1,active: 15.8 µM,
O=c1[nH]cc(C(F)(F)F)cc1NS(=O)(=O)c1ccccc1[N+](=O)[O-],"inconclusive: 15.8 µM [inhibitor, partial curve]",
Cc1cc2c(C)c(C)c(=O)[nH]c2cc1N,"inconclusive: 12.6 µM [inhibitor, partial curve]",
COc1ccc(/C=N\N2CCN(Cc3ccccc3Cl)CC2)cc1,active: 15.8 µM,
CCc1nnc(NS(=O)(=O)c2ccc(N)cc2)s1,"inconclusive: 15.8 µM [inhibitor, partial curve]",
CCOc1ccc2nc(NC(=O)CSc3nc4cccnc4n3C)sc2c1,inactive,
Cc1ccc(/C=C/C(=O)Nc2cccnc2)o1,"inconclusive: 39.7 µM [activator, single point]",
O=C(/C=C/c1ccccc1)NC(=S)NNC(=O)Cc1cccs1,"inconclusive: 31.5 µM [inhibitor, single point]",
Cc1ccc(C)c(S(=O)(=O)Nc2ccc3scnc3c2)c1,"inconclusive: 44.6 µM [inhibitor, single point]",
CC(=O)N1c2ccc(S(=O)(=O)NCC3CCC(C(=O)Nc4cc(C)ccn4)CC3)cc2CC1C (stereo not drawn),,inconclusive: 37.4% [activator]
COc1ccc(Br)cc1CN(C)CC(=O)NCCc1ccccc1,"inconclusive: 8.89 µM [inhibitor, partial curve]",
CN1CCN(c2nc3ccccn3c(=O)c2C=O)CC1,"inconclusive: 22.4 µM [inhibitor, partial curve]",
CC(C)C(=O)NNC(=O)c1csc(-c2cccs2)n1,"inconclusive: 15.8 µM [inhibitor, partial curve]",
CCOC(=O)C1=C(C)OC(N)=C(C#N)C1c1cc2cc(C)ccc2nc1N1CCCCC1 (stereo not drawn),"inconclusive: 19.9 µM [inhibitor, partial curve]",

Structure (SMILES),Potency,"activity, negative = inhibition"
Cc1ccc(-c2nnc(-c3cc(C)on3)o2)cc1,inactive,
NC(N)=Nc1cc2ccccc2c2ccccc12,active: 3.15 µM,
O=c1c(-c2ccccc2)nc(-c2ccccc2)cn1O,inactive,
NC(=O)/C(=C/c1ccco1)C(N)=S,"inconclusive: 31.5 µM [inhibitor, single point]",
CCc1ccc(NC(=O)Cc2c(C(=O)O)n(C)c3ccccc23)cc1,"inconclusive: 17.7 µM [activator, single point]",
CCc1cc(=O)oc2c(CNCc3ccc(OC)cc3OC)c(O)c(Cl)cc12,"inconclusive: 15.8 µM [inhibitor, partial curve]",
COCCNC(=O)CSc1nc2ccc(N3CCOCC3)cc2c(=O)n1CCc1ccccc1,"inconclusive: 1.26 µM [inhibitor, full curve]",
CCN(CC)c1nc(N2CCN(CCO)CC2)nc2ccccc12,active: 12.6 µM,
O=C(NC(=S)N(CCO)Cc1ccccc1)c1ccc(F)cc1Cl,"inconclusive: 12.6 µM [inhibitor, partial curve]",
Cn1c(NCc2ccco2)nc2c1c(=O)n(Cc1ccc(Cl)cc1)c(=O)n2C,inactive,
CN(Cc1ccncc1)C1CC(=O)N(c2ccc(Cl)cc2)C1=O (stereo not drawn),inactive,
CC(=O)N1c2ccc3ccccc3c2C2C=CCC2C1c1ccc(Br)cc1 (stereo not drawn),"inconclusive: 15.8 µM [inhibitor, single point]",
COc1cn(-c2ccccc2)nc1C(=O)NCc1ccccc1,inactive,
CCCC(CCC)c1nc2ccncc2[nH]1,"inconclusive: 15.8 µM [inhibitor, single point]",
CN(C)c1nc(-c2cn(CCC#N)c3ccccc23)cs1,"inconclusive: 17.8 µM [inhibitor, partial curve]",
CCn1c(SCC(=O)Nc2nncs2)nnc1C(C)NC(=O)c1ccccc1Br (stereo not drawn),"inconclusive: 20 µM [inhibitor, single point]",
Cc1ccc2[nH]c(=O)c(CN(CCO)Cc3nnnn3CCc3ccccc3)cc2c1,inactive,
CCCn1nnc(NC(=O)c2cccc(OCC)c2)n1,inactive,
Clc1ccccc1-c1nc(/C=N/N2CCOCC2)c2ccccn12,"inconclusive: 25.1 µM [inhibitor, partial curve]",
S=C1NC2(CCCC2)Nc2ccccc21,"inconclusive: 15.8 µM [inhibitor, partial curve]",
CCOc1cc(-c2nc3c(C)cccn3c2NCC2CCCO2)ccc1O (stereo not drawn),"inconclusive: 17.7 µM [inhibitor, single point]",
CCOC(=O)N1CCN(C(=O)CSc2nnc(-c3ccc(C)c(C)c3)o2)CC1,inactive,
CC(O)CNc1nc2c(c(=O)n(C)c(=O)n2C)n1CCc1ccccc1 (stereo not drawn),inactive,
